Reference: US10947238B2, “Wee1 kinase inhibitors and methods of making and using the same” (THE REGENTS OF THE UNIVERSITY OF COLORADO, a body corporate, priority 2015, dated 2021)

Columns and labels:
Daoy cells [1] = test: MTS assay of synergy with cisplatin in Daoy cells (Chou-Talalay Combination Index); format: cell-based; details: 72 hours
Protocol: CI values determined using the Chou-Talalay equation, with combination treatments indicated as non-synergistic (red, >1.05), synergistic (green, <0.95) and intermediate (yellow, 0.96-1.04). […] Dose responses for increasing cisplatin concentrations at a concentration (300 nM) of several Wee1 inhibitors, compared to cisplatin alone.

[2] = test system: medulloblastoma D458 suspension cell line; test: D458 cell number and viability by flow cytometry (Viacount); format: cell-based; details: 72 hours, p<0.01
[3] = pharmacokinetics and tissue distribution in mice with dorsal flank tumor xenografts; format: in vivo
Text: Data represent the mean±SD of 3 mice.

ONS-76 cells = test: MTS assay, ONS-76 cells, single agent; format: cell-based
Wee1 kinase = Wee1 kinase (Homo sapiens, UniProt P30291); details: cited from earlier work
Chain of UniProt P30291 (P30291 whole entry): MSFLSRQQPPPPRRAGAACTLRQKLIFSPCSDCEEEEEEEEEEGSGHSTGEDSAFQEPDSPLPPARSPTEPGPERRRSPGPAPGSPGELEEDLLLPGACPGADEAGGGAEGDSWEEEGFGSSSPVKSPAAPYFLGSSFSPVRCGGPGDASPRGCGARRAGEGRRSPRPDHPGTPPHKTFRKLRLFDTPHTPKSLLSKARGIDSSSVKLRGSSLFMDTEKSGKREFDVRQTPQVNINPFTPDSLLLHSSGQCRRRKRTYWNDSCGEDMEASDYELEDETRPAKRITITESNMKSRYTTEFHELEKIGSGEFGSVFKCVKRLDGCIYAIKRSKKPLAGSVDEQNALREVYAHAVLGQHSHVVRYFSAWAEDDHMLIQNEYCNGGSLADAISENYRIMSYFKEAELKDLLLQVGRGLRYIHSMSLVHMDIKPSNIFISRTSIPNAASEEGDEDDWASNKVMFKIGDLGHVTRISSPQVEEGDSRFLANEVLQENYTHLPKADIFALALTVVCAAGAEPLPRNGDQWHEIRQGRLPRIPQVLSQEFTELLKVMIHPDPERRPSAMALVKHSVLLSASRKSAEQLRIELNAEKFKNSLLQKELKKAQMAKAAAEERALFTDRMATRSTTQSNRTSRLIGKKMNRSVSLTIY

Daoy cells [4] = test: MTS assay, Daoy cells, single agent

SMILES | melting point | also measured
C=CCn1c(=O)c2cnc(Nc3ccc(N4CCCCC4)cc3)nc2n1-c1cccc(C(C)(C)O)n1 [11b, 2-Allyl-1-(6-(2-hydroxypropan-2-yl)pyridin-2-yl)-6-((4-(piperidin-1-yl)phenyl)amino)-1,2-dihydro-3Hpyrazolo[3,4-d]pyrimidin-3-one] | 158 to 160 °C | 
C=CCn1c(=O)c2cnc(Nc3ccc(N4CCOCC4)cc3)nc2n1-c1cccc(C(C)(C)O)n1 [11c, 2-Allyl-1-(6-(2-hydroxypropan-2-yl)pyridin-2-yl)-6-((4-morpholinophenyl)amino)-1,2-dihydro-3Hpyrazolo[3,4-d]pyrimidin-3-one] | 200 to 203 °C | 
C=CCn1c(=O)c2cnc(Nc3ccc(N4CCN(C(=O)OC)CC4)cc3)nc2n1-c1cccc(C(C)(C)O)n1 [11d, Methyl 4-(4-((2-allyl-1-(6-(2-hydroxypropan-2-yl)pyridin-2-yl)-3-oxo-2,3-dihydro-1H-pyrazolo[3,4-d]pyrimidin-6-yl)amino)phenyl)piperazine-1-carboxylate] |  | synergy with cisplatin (Combinatorial Index) (Daoy cells [1]; MTS, Chou-Talalay): synergistic activity at lower cisplatin concentrations; concentration at which cell number decreased and percentage of non-viable cells increased compared with DMSO control [2]: 370.4 nM; brain penetration [3]: trace amounts; effect on ONS-76 cell viability as single agent (ONS-76 cells; MTS assay, 72 hours): no effect
C=CCn1c(=O)c2cnc(Nc3ccc(N4CCCCC4)cc3)nc2n1-c1cccc(C(F)(F)F)n1 [11f, 2-Allyl-6-((4-(piperidin-1-yl)phenyl)amino)-1-(6-(trifluoromethyl)pyridin-2-yl)-1,2-dihydro-3Hpyrazolo[3,4-d]pyrimidin-3-one] | 182 to 184 °C | 
C=CCn1c(=O)c2cnc(Nc3ccc(N4CCOCC4)cc3)nc2n1-c1cccc(C(F)(F)F)n1 [11g, 2-Allyl-6-((4-morpholinophenyl)amino)-1-(6-(trifluoromethyl)pyridin-2-yl)-1,2-dihydro-3Hpyrazolo[3,4-d]pyrimidin-3-one] | 215 to 217 °C | 
C=CCn1c(=O)c2cnc(Nc3ccc(N4CCN(C(=O)OC)CC4)cc3)nc2n1-c1cccc(C(F)(F)F)n1 [11i, Methyl 4-(4-((2-allyl-3-oxo-1-(6-(trifluoromethyl)pyridin-2-yl)-2,3-dihydro-1H-pyrazolo [3,4-d]pyrimidin-6-yl)amino)phenyl)piperazine-1-carboxylate] | 164 to 167 °C | 
C=CCn1c(=O)c2cnc(Nc3ccc(N4CCCCC4)cc3)nc2n1-c1cccc(OC)n1 [11k, 2-Allyl-1-(6-methoxypyridin-2-yl)-6-((4-(piperidin-1-yl)phenyl)amino)-1,2-dihydro-3H-pyrazolo[3,4-d]pyrimidin-3-one] | 166 to 167 °C | 
C=CCn1c(=O)c2cnc(Nc3ccc(N4CCN(C(=O)OC)CC4)cc3)nc2n1-c1cccc(OC)n1 [11n, Methyl 4-(4-((2-allyl-1-(6-methoxypyridin-2-yl)-3-oxo-2,3-dihydro-1H-pyrazolo[3,4-d]pyrimidin-6-yl)amino)phenyl)piperazine-1-carboxylate] | 197 to 200 °C | 
C=CCn1c(=O)c2cnc(Nc3ccc(N4CCN(C)CC4)cc3)nc2n1-c1cccc(C(C)(C)O)n1 [AZD1775, 2-Allyl-1-(6-(2-hydroxypropan-2-yl)pyridin-2-yl)-6-((4-(4-methylpiperazin-1-yl)phenyl)amino)-1,2-dihydro-3H-pyrazolo[3,4-d]pyrimidin-3-one] |  | potentiation of cisplatin by co-treatment with 300 nM Wee1 inhibitor (Daoy cells [1]; 300 nM inhibitor): The effect was also potentiated; Wee1 kinase inhibition (HTS hit) (Wee1 kinase): nanomolar inhibitor of Wee1 kinase; effect of Wee1 inhibitor alone at 300 nM on Daoy cells (Daoy cells [4]; 300 nM, MTS, 72 hours): extensive loss of cellular viability; EC50 (Daoy cells [4]; Homo sapiens, Daoy, 72 h, read-out: EC50, cellular viability of Daoy cells): 219 ± 26 nM; concentration at which cell number decreased and percentage of non-viable cells increased compared with DMSO control [2]: 123.5 nM; brain penetration [3]: trace amounts; EC50 (ONS-76 cells; Homo sapiens, ONS-76, 72 h, read-out: EC50, cell viability of ONS-76 cells): 289 ± 47 nM

Continued, in another order:

melting point | SMILES | also measured
173 to 175 °C | C=CCn1c(=O)c2cnc(Nc3ccc(N(C)C)cc3)nc2n1-c1cccc(C(C)(C)O)n1 [11a, 2-Allyl-6-((4-(dimethylamino)phenyl)amino)-1-(6-(2-hydroxypropan-2-yl)pyridin-2-yl)-1,2-dihydro-3Hpyrazolo[3,4-d]pyrimidin-3-one] | 
179 to 181 °C | C=CCn1c(=O)c2cnc(Nc3ccc(N(C)C)cc3)nc2n1-c1cccc(C(F)(F)F)n1 [11e, 2-Allyl-6-((4-(dimethylamino)phenyl)amino)-1-(6-(trifluoromethyl)pyridin-2-yl)-1,2-dihydro-3Hpyrazolo[3,4-d]pyrimidin-3-one] | 
176 to 180 °C | C=CCn1c(=O)c2cnc(Nc3ccc(N4CCN(C)CC4)cc3)nc2n1-c1cccc(C(F)(F)F)n1 [11h, 2-Allyl-6-((4-(4-methylpiperazin-1-yl)phenyl)amino)-1-(6-(trifluoromethyl)pyridin-2-yl)-1,2-dihydro-3H-pyrazolo[3,4-d]pyrimidin-3-one] | 
126 to 128 °C | C=CCn1c(=O)c2cnc(Nc3ccc(N(C)C)cc3)nc2n1-c1cccc(OC)n1 [11j, 2-Allyl-6-((4-(dimethylamino)phenyl)amino)-1-(6-methoxypyridin-2-yl)-1,2-dihydro-3H-pyrazolo[3,4-d]pyrimidin-3-one] | 
